According to the supplement of paper PMC8728848:
This is one part of the list.

Key:
Assay in all cases: glycan array binding signal (z-score within array); higher = stronger binding
Details in all cases: glycan notation: IUPAC condensed, linker removed
[1] = molecular target: Gal(b1-3)[Fuc(a1-4)]GlcNAc
In short: (§1)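 Glycan array binding is given as a within-array Z-score, which can be read as non-binding when negative. The arrays, 3228 of them, came from the Consortium for Functional Glycomics database and were retained only where the protein sequence was available. Z-scores were averaged across arrays of the same protein sequence at different concentrations or buffers and across linkers.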

[2] = molecular target: Gal(b1-3)[Fuc(a1-4)]GlcNAc(b1-2)Man(a1-3)[Gal(b1-3)[Fuc(a1-4)]GlcNAc(b1-2)Man(a1-6)]Man(b1-4)GlcNAc(b1-4)GlcNAc
In short: as §1

[3] = molecular target: Gal(b1-3)[Fuc(a1-4)]GlcNAc(b1-2)Man(a1-3)[Gal(b1-3)[Fuc(a1-4)]GlcNAc(b1-2)Man(a1-6)]Man(b1-4)GlcNAc(b1-4)[Fuc(a1-6)]GlcNAc
In short: as §1

[4] = molecular target: Gal(b1-3)[Fuc(a1-4)]GlcNAc(b1-3)Gal(b1-3)[Fuc(a1-4)]GlcNAc
In short: as §1

[5] = molecular target: Gal(b1-3)[Fuc(a1-4)]GlcNAc(b1-3)Gal(b1-4)GlcNAc
In short: as §1

[6] = molecular target: Gal(b1-3)[Fuc(a1-4)]GlcNAc(b1-3)Gal(b1-4)[Fuc(a1-3)]GlcNAc
In short: as §1

[7] = molecular target: Gal(b1-3)[GlcNAc(b1-6)]GalNAc
In short: as §1

[8] = molecular target: Gal(b1-3)[Neu5Ac(a2-6)]GalNAc
In short: as §1

[9] = molecular target: Gal(b1-3)[Neu5Ac(a2-6)]GlcNAc(b1-6)Gal(b1-4)Glc
In short: as §1

[10] = molecular target: Gal(b1-3)[Neu5Ac(b2-6)]GalNAc
In short: as §1

[11] = molecular target: Gal(b1-4)GalNAc(a1-3)[Fuc(a1-2)]Gal(b1-4)GlcNAc
In short: as §1

[12] = molecular target: Gal(b1-4)GalNAc(b1-3)[Fuc(a1-2)]Gal(b1-4)GlcNAc
In short: as §1

Gal(b1-4)Glc = molecular target: Gal(b1-4)Glc
In short: as §1

Gal(b1-4)Glc6S = molecular target: Gal(b1-4)Glc6S
In short: as §1

Gal(b1-4)GlcNAc = molecular target: Gal(b1-4)GlcNAc
In short: as §1

[13] = molecular target: Gal(b1-4)GlcNAc(a1-6)Gal(b1-4)GlcNAc
In short: as §1

[14] = molecular target: Gal(b1-4)GlcNAc(b1-2)Man(a1-3)Man(b1-4)GlcNAc(b1-4)GlcNAc
In short: as §1

[15] = molecular target: Gal(b1-4)GlcNAc(b1-2)Man(a1-3)[Gal(b1-4)GlcNAc(b1-2)Man(a1-6)]Man(b1-4)GlcNAc(b1-4)GlcNAc
In short: as §1

[16] = molecular target: Gal(b1-4)GlcNAc(b1-2)Man(a1-3)[Gal(b1-4)GlcNAc(b1-2)Man(a1-6)]Man(b1-4)GlcNAc(b1-4)[Fuc(a1-6)]GlcNAc
In short: as §1

[17] = molecular target: Gal(b1-4)GlcNAc(b1-2)Man(a1-3)[Man(a1-6)]Man(b1-4)GlcNAc(b1-4)GlcNAc
In short: as §1

[18] = molecular target: Gal(b1-4)GlcNAc(b1-2)Man(a1-6)Man(b1-4)GlcNAc(b1-4)GlcNAc
In short: as §1

[19] = molecular target: Gal(b1-4)GlcNAc(b1-2)Man(a1-6)[Man(a1-3)]Man(b1-4)GlcNAc(b1-4)GlcNAc
In short: as §1

[20] = molecular target: Gal(b1-4)GlcNAc(b1-2)[Gal(b1-4)GlcNAc(b1-4)]Man(a1-3)[Gal(b1-4)GlcNAc(b1-2)Man(a1-6)]Man(b1-4)GlcNAc(b1-4)GlcNAc
In short: as §1

[21] = molecular target: Gal(b1-4)GlcNAc(b1-3)Gal(b1-3)GlcNAc
In short: as §1

[22] = molecular target: Gal(b1-4)GlcNAc(b1-3)Gal(b1-4)Glc
In short: as §1

[23] = molecular target: Gal(b1-4)GlcNAc(b1-3)Gal(b1-4)GlcNAc
In short: as §1

[24] = molecular target: Gal(b1-4)GlcNAc(b1-3)Gal(b1-4)GlcNAc(b1-3)Gal(b1-4)GlcNAc
In short: as §1

[25] = molecular target: Gal(b1-4)GlcNAc(b1-3)Gal(b1-4)[Fuc(a1-3)]GlcNAc(b1-3)Gal(b1-4)[Fuc(a1-3)]GlcNAc
In short: as §1

[26] = molecular target: Gal(b1-4)GlcNAc(b1-3)GalNAc
In short: as §1

[27] = molecular target: Gal(b1-4)GlcNAc(b1-3)[Gal(b1-4)GlcNAc(b1-6)]Gal(b1-4)GlcNAc
In short: as §1

B1: Flo5 (Saccharomyces cerevisiae), P38894 (protein)
chain: MGSSHHHHHHSSGLVPRGSHMSGATEACLPAGQRKSGMNINFYQYSLKDSSTYSNAAYMAYGYASKTKLGSVGGQTDISIDYNIPCVSSSGTFPCPQEDSYGNWGCKGMGACSNSQGIAYWSTDLFGFYTTPTNVTLEMTGYFLPPQTGSYTFSFATVDDSAILSVGGSIAFECCAQEQPPITSTNFTINGIKPWDGSLPDNITGTVYMYAGYYYPLKVVYSNAVSWGTLPISVELPDGTTVSDNFEGYVYSFDDDLSQSNCTIPDPSIH
Q: Which results are given for B1?
A: glycan array binding signal (z-score) [1]: -0.153; glycan array binding signal (z-score) [2]: 0.267; glycan array binding signal (z-score) [3]: -0.066; glycan array binding signal (z-score) [4]: -0.194; glycan array binding signal (z-score) [5]: -0.203; glycan array binding signal (z-score) [6]: -0.01; glycan array binding signal (z-score) [7]: -0.125; glycan array binding signal (z-score) [8]: -0.092; glycan array binding signal (z-score) [9]: -0.215; glycan array binding signal (z-score) [10]: -0.121; glycan array binding signal (z-score) [11]: -0.189; glycan array binding signal (z-score) [12]: -0.141; glycan array binding signal (z-score) (Gal(b1-4)Glc): -0.096; glycan array binding signal (z-score) (Gal(b1-4)Glc6S): -0.154; glycan array binding signal (z-score) (Gal(b1-4)GlcNAc): -0.167; glycan array binding signal (z-score) [13]: 0.26; glycan array binding signal (z-score) [14]: -0.194; glycan array binding signal (z-score) [15]: 0.367; glycan array binding signal (z-score) [16]: -0.238; glycan array binding signal (z-score) [17]: -0.202; glycan array binding signal (z-score) [18]: -0.044; glycan array binding signal (z-score) [19]: -0.169; glycan array binding signal (z-score) [20]: -0.059; glycan array binding signal (z-score) [21]: 0.114; glycan array binding signal (z-score) [22]: -0.17; glycan array binding signal (z-score) [23]: -0.181; glycan array binding signal (z-score) [24]: -0.063; glycan array binding signal (z-score) [25]: -0.174; glycan array binding signal (z-score) [26]: -0.188; glycan array binding signal (z-score) [27]: -0.241
